# Source: PubChem BioAssay AID651820 (National Center for Advancing Translational Sciences (NCATS), 2012)
# The campaign covered roughly 340,000 compounds. About 12,000 (3.5%) were called active. The inconclusive results got no clear call from the source; some entries with a clear call stand among them for comparison. Calls follow the shape of the dose curve; as a rule, active = well fitted inhibition curve with a large enough effect; inconclusive = small, poorly fitted or top-dose-only effect, or another doubt; inactive = no such curve, though single readings can be large or run the other way. No potency is given beside an inconclusive call; the fits are too rough.
# Experiment: qHTS Assay for Inhibitors of Hepatitis C Virus (HCV)
# Settings: Huh7.5.1 HCVcc-Cre (HCVcc is cell-culture hepatitis C virus) infection, luciferase reporter, 44 h; activity change, negative = inhibition: at 41.8 µM (top of the series) unless noted
# Summary of the method: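 A cell-based infection assay in which seeded cells (1,000 per well) receive test compound after 4 h, are inoculated with HCVcc-Cre at approximately 0.5 moi, and are incubated 44 h before luminescence detection.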
# % is scaled to controls: 0 for no effect and ±100 for the full control effect; potency is read from the fitted curve at half-maximal effect; tags tell the direction and shape of the fitted curve.
Compound,"activity change, negative = inhibition",Potency
CCN1C(=O)NC(=O)/C(=C/c2cc(C)n(-c3sc(C)c(C)c3C#N)c2C)C1=O,inactive: 17.4%,
COc1cc2ccccc2cc1C(=O)N(CCN(C)C)c1nc2c(OC)ccc(OC)c2s1,,"inconclusive [inhibitor, partial curve, poor fit]"
COC(=O)c1c(NC(=O)c2ccco2)sc(C(=O)N2CCCC2)c1C,,"inconclusive [inhibitor, full curve]"
Cn1cc(SCC(=O)NCc2ccc3c(c2)OCO3)c2ccccc21,,"inconclusive [inhibitor, single point]"
C(=N\N(c1ccccc1)c1ccccc1)/c1ccccn1,,"inconclusive [inhibitor, single point]"
c1ccc(-c2cc3c(NCC4COc5ccccc5O4)ncnc3s2)cc1 (centres undefined),,"inconclusive [inhibitor, partial curve]"
CCCC1=Nc2cc(C(=O)NCCN3CCOCC3)ccc2Sc2ccccc21,,"inconclusive [inhibitor, single point]"
O=C(CN(c1ccc(Cl)cc1)S(=O)(=O)c1ccc(Cl)c([N+](=O)[O-])c1)NCCc1ccccc1,,active: 11.2 µM
COc1cc(NC(=O)c2cc([N+](=O)[O-])ccc2N2CCOCC2)ccc1NC(=O)c1ccco1,,"inconclusive [inhibitor, partial curve, poor fit]"
COc1ccc(N(CC(=O)Nc2ccccc2OC)S(=O)(=O)c2ccc(OC)c(OC)c2)cc1,,"inconclusive [inhibitor, single point]"
COc1ccc(-c2c[n+](CC(=O)c3cccs3)c3n2CCC3)cc1,,"inconclusive [inhibitor, single point]"
Cc1ccc(C)c(N2CCN(C(=O)c3ccc(Cl)c(NC4=NC5CS(=O)(=O)CC5S4)c3)CC2)c1 (centres undefined),,"inconclusive [inhibitor, single point]"
CCOC(=O)c1cnc(SCc2nc(N)nc(Nc3ccccc3)n2)nc1N,,"inconclusive [inhibitor, full curve]"
CCOC(=O)c1sc(NC(=O)CSc2ccccn2)c(C#N)c1C,,"inconclusive [inhibitor, full curve]"
CCOC(=O)c1cc2c(=O)n3ccccc3nc2n(CC2CCCO2)c1=NC(=O)/C=C/c1ccccc1 (centres undefined),,"inconclusive [inhibitor, full curve]"
CCn1c(SCC(=O)N(C(C)C)C(C)C)nnc1-c1cc2ccccc2cc1O,,"inconclusive [inhibitor, single point]"
CC(=O)c1cc2c(cc1NC(=O)c1cc3nc(C(C)C)cc(C(F)(F)F)n3n1)OCO2,,"inconclusive [inhibitor, single point]"
O=C(Nc1ccc(N2CCCCC2)cc1)c1ccc(F)cc1,,"inconclusive [inhibitor, partial curve, poor fit]"
COc1ccccc1N1CCN(Cc2nc(N)nc(Nc3ccc(C)c(Cl)c3)n2)CC1,,active: 11.2 µM
S=C(NCc1ccc(Cl)cc1)NCc1ccccn1,inactive: -25.9%,
O=C(CNC(=O)c1cccc(F)c1)N/N=C/c1ccc([N+](=O)[O-])s1,,"inconclusive [inhibitor, single point]"
COc1cc(/C=C/C(=O)OCC(=O)Nc2cc(S(=O)(=O)N3CCCC3)ccc2Cl)cc(OC)c1OC,,"inconclusive [inhibitor, partial curve]"

Compound,"activity change, negative = inhibition",Potency
CN(CC(=O)Nc1cc([N+](=O)[O-])ccc1Cl)Cc1ccc(Br)cc1,,"inconclusive [inhibitor, partial curve]"
Cc1ccnc(Nc2nc(-c3ccc(O)c(O)c3)cs2)c1,,"inconclusive [inhibitor, partial curve]"
O=C(CCCCCN1C(=O)[C@@H]2Cc3ccccc3CN2C1=O)Nc1ccccc1F,,"inconclusive [inhibitor, single point]"
CCOc1ccc2nc(/N=C/c3c(C)[nH]n(-c4ccc(C)cc4)c3=O)sc2c1,,"inconclusive [inhibitor, single point]"
O=C(CC1NCCc2ccccc21)Nc1ccc(Oc2ccccc2)cc1 (centres undefined),,active: 11.2 µM
COc1ccc(NC(=O)c2cc([N+](=O)[O-])ccc2NC(=O)CNC2CCCCC2C)c(OC)c1 (centres undefined),,"inconclusive [inhibitor, full curve]"
O=C(CCC(=O)Nc1ccccc1)N/N=C/c1cccnc1,inactive: 5.43%,
CC1CCc2c(c3ccccc3n2C(=O)CCl)C1 (centres undefined),,"inconclusive [inhibitor, single point]"
O=C(CSc1nnnn1-c1ccc2c(c1)OCCO2)Nc1nc2c(s1)CCCC2,,"inconclusive [inhibitor, partial curve]"
Cc1nc(S/C(=C\c2ccc(-c3ccc(C(=O)O)c(Cl)c3)o2)C(=O)O)n[nH]1,inactive: 24.8%,
O=C1N/C(=C\c2ccc(O)cc2)C(=O)c2ccccc21,,active: 11.2 µM
FC(F)Oc1ccccc1NC(=S)Nc1cccc(Cl)c1Cl,,"inconclusive [inhibitor, single point]"
COc1cc(O)cc2cc3c(c(O)c12)C(=O)CC(C)(O)O3 (centres undefined),,"inconclusive [inhibitor, partial curve]"
CCN(CC)c1ccc(N)cc1,,"inconclusive [inhibitor, partial curve]"
COc1ccc(/C=C2\CCCC3C2=NC(=S)NC3c2ccc(OC)cc2)cc1 (centres undefined),,"inconclusive [inhibitor, single point]"
CCCCCCC(C)OC(=O)c1ccccc1C(=O)O (centres undefined),inactive: 8.03%,
CO/N=C(\Cn1ncc(N2CCCC2)c(Cl)c1=O)c1ccc(Cl)cc1,,"inconclusive [inhibitor, single point]"
Cc1cc2nc(CCN(C(=S)NCC3CCCO3)C3CCCC3)[nH]c2cc1C (centres undefined),,active: 11.2 µM
C[C@H]1CN([C@@H](C)CO)C(=O)c2cccc(NC(=O)Nc3ccc(C(F)(F)F)cc3)c2O[C@H]1CN(C)C,,"inconclusive [inhibitor, partial curve]"
COc1ccc(CC(=O)Nc2sc3c(c2C(N)=O)CCCC3)cc1,,"inconclusive [inhibitor, partial curve]"
C=CCNC(=O)Nc1ccc(Br)cc1Cl,,"inconclusive [inhibitor, partial curve]"
Cc1cccc(NCc2nnc(-c3ccccc3)o2)c1C,,"inconclusive [inhibitor, full curve]"

Compound,"activity change, negative = inhibition",Potency
O=C(Cc1ccc(NC(=O)C2CCCN(C(=O)CCc3ccccc3)C2)cc1)Nc1ccc(C(=O)N2CCOCC2)cc1 (centres undefined),inactive: -13.7% [at 8.37 µM],
C#CCOCCOCCOCCNc1nc(N2CCN(C(=O)CCCCCCCCCCNC(=O)[C@H](CCCCN)n3cc(CCO)nn3)CC2)nc(N2CCN(C(=O)CCCCCCCCCCNC(=O)[C@H](CCCN=C(N)N)n3cc(C[C@@H](C)CC)nn3)CC2)n1,,"inconclusive [inhibitor, single point]"
CC1(C)CC(=O)C2=C(C1)c1c(ccc3ncccc13)NC2c1cccs1 (centres undefined),,"inconclusive [inhibitor, full curve, poor fit]"
COc1c(F)cccc1C1=CC(=O)C[C@H](c2ccc3c(c2)OCO3)C1,,"inconclusive [inhibitor, single point]"
O=C(CN1CCCc2ccccc21)N/N=C/c1ccccc1O,,"inconclusive [inhibitor, partial curve, poor fit]"
CCCCN(C(=O)c1cccc(S(=O)(=O)N2CCN(Cc3ccccc3)CC2)c1)c1ccccc1,,"inconclusive [inhibitor, single point]"
Cc1cccc(NC(=S)N2CCN(S(=O)(=O)c3ccc(F)cc3)CC2)c1,inactive: 5.22%,
CSCCC(NC(=O)COc1ccccc1)C(=O)N1CC(C)CC(C)C1 (centres undefined),inactive: 7.78%,
CC1=C(C(=O)Nc2ccc(F)c(F)c2)C(c2cccs2)NC(=S)N1 (centres undefined),,"inconclusive [inhibitor, partial curve]"
CCN1CCN(c2ccc(NC(=O)c3ccc(Cl)c(S(=O)(=O)N4CCCC4)c3)cc2)CC1,,active: 17.8 µM
CCOC(=O)c1cccc(NC(=O)CN(c2ccc(C)cc2)S(=O)(=O)c2c(C)noc2C)c1,,"inconclusive [inhibitor, single point]"
Cc1ccsc1CN(C)CC(=O)Nc1ccc([N+](=O)[O-])cc1Cl,,active: 12.6 µM
Clc1ccc(CNCC2CCCO2)c(Cl)c1 (centres undefined),inactive: -3.79%,
CCC1(C)Cc2c(sc3c2c2ncnn2c2nnc(SCC(=O)NCc4ccco4)n32)CO1 (centres undefined),,"inconclusive [inhibitor, partial curve]"
COc1ccc(-c2noc(CN(C)S(=O)(=O)c3ccc(C)cc3)n2)cc1,,"inconclusive [inhibitor, single point]"
CN(C)S(=O)(=O)c1cc(NC(=O)CN2CCN(c3ccccc3F)CC2)ccc1Cl,,"inconclusive [inhibitor, single point]"
COc1cccc(NC(=S)N(Cc2ccccn2)Cc2ccccc2Cl)c1,,"inconclusive [inhibitor, single point]"
CC(=O)Nc1ccc(-c2csc(Nc3ncccn3)n2)cc1,inactive: 6.38%,
ClC1=CCC2CN(CCN3CCCCC3)CC2C1 (centres undefined),,"inconclusive [inhibitor, single point]"
CCCn1nc(C(=O)Nc2nc3ccccc3[nH]2)c2ccccc2c1=O,,"inconclusive [inhibitor, single point]"
